Measurements as given in patent US20220340635A1, “FUSION PROTEIN FOR TREATMENT OF METABOLIC DISEASE” (ZHEJIANG DOER BIOLOGICS CORPORATION, priority 2019, published 2022).

B1: G382L1F6: SEQ ID NO.84: dimeric fusion protein that does not contain the C-terminal sequence of Exendin-4 (protein)
chain: HSQGTFTSDYSKYLDSQAAQDFVQWLLDGGGGGSGGGGSGGGGSA[letters of human IgG4 Fc with S228P N297A (EU numbers) omitted]
modifications: Amino acid sequence of G382L1F6
B2: G395L1F6: SEQ ID NO.85: dimeric fusion protein that does not contain the C-terminal sequence of Exendin-4 (protein)
chain: HSQGTFTSDYSKYLDEEAAQDFVQWLLAGGGGGSGGGGSGGGGSA[letters of human IgG4 Fc with S228P N297A (EU numbers) omitted]
modifications: Amino acid sequence of G395L1F6
B3: G402L1F6: SEQ ID NO.86: dimeric fusion protein that does not contain the C-terminal sequence of Exendin-4 (protein)
chain: HSQGTFTSDYSKYLDEEAAQDFVQWLLDGGGGGSGGGGSGGGGSA[letters of human IgG4 Fc with S228P N297A (EU numbers) omitted]
modifications: Amino acid sequence of G402L1F6
B4: G232L1F6: SEQ ID NO.82: dimeric fusion protein that does not contain the C-terminal sequence of Exendin-4 (protein)
chain: HSQGTFTSDYSKYLDEQAAQDFVQWLLAGGGGGSGGGGSGGGGSA[letters of human IgG4 Fc with S228P N297A (EU numbers) omitted]
modifications: Amino acid sequence of G232L1F6
B5: G352L1F6: SEQ ID NO.83: dimeric fusion protein that does not contain the C-terminal sequence of Exendin-4 (protein)
chain: HSQGTFTSDYSKYLDSQAAQDFVQWLLAGGGGGSGGGGSGGGGSA[letters of human IgG4 Fc with S228P N297A (EU numbers) omitted]
modifications: Amino acid sequence of G352L1F6
B6: A001L1F6: SEQ ID NO.51: active protein in which natural Glucagon was fused with FC; control (protein)
chain: HSQGTFTSDYSKYLDSRRAQDFVQWLMNTGGGGSGGGGSGGGGSA[letters of human IgG4 Fc with S228P N297A (EU numbers) omitted]
modifications: Amino acid sequencea of active protein A001L1F6
notes: control

Molecular target: T1, human GLP-1R (Homo sapiens, UniProt P43220)
T1 construct: expressed in transfected cells
Assay: GLP-1R agonist bioactivity assay, luciferase reporter gene, CHO/GLP-1R cells
Format: cell-based
Conditions: ratio of GLP-1R agonist activity before and after addition of C-terminal extension peptide Cex from Exendin-4
Method: The GLP-1R agonist bioactivity assay was carried out using a luciferase reporter gene detection method. The human GLP-1R gene was cloned into mammalian cell expression plasmid pCDNA3.1 to construct a recombinant expression plasmid pCDNA3.1-GLP-1R, and the full-length luciferase gene was cloned into pCRE-EGFP plasmid to replace the EGFP gene to obtain a pCRE-Luc recombinant plasmid. CHO cells were transfected with pCDNA3.1-GLP-1R and pCRE-Luc plasmids at a molar ratio of 1:10. and stably transfected expression strains were selected to obtain recombinant CHO/GLP-1R stably transfected cell strains.
The cells were cultured in a 9-cm cell dish with DMEM/F12 medium containing 10% FBS and 300 μg/ml G418. When the confluence reached about 90%, the supernatant was discarded. The cells were digested in 2 ml trypsin for 3 min and neutralized in 2 ml DMEM/F12 medium before transferring to a 15 ml centrifuge tube. The tube was centrifuged at 1000 rpm for 5 min. Supernatant was discarded and 2 ml DMEM/F12 medium containing 10% FBS and 300 μg/ml G418 was added for resuspension and counting. The cells were diluted to 5×10^5/mL with DMEM/F12 medium containing 10% FBS. Plating 100 μl in each well of a 96-well plate, i.e., 5×10^4 per well. After adherence, the cells were cultured in DMEM/F12 medium containing 0.2% FBS overnight. […] The cells were cultured for 6 h stimulation before detection. The assay is carried out according to the instructions of Lucifersae reporter kit (Ray Biotech, Cat: 68-LuciR-S200).

T1 sequence (P43220 24-463): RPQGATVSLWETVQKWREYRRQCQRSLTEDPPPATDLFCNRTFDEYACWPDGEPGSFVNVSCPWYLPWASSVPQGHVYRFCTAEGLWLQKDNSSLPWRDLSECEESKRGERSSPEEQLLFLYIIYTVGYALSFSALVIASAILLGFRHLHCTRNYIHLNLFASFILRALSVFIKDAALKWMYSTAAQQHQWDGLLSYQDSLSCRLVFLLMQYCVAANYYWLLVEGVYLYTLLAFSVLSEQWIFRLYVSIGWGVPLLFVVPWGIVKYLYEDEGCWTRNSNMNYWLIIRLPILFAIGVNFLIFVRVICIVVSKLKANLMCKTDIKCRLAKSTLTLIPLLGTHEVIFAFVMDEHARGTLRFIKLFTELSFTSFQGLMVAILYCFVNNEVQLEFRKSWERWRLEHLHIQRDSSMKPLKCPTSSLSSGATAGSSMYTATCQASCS

Question: Which Activity ratio a does the source give for B1 here?
Answer: Its Activity ratio a is 234.

Question: Which Activity ratio a does the source give for B2 here?
Answer: The Activity ratio a was 234.

Question: For B3, which Activity ratio a is on record?
Answer: Its Activity ratio a is 214.

Question: For B4, which Activity ratio a is on record?
Answer: The Activity ratio a was 212.

Question: Which Activity ratio a does the source give for B5 here?
Answer: Its Activity ratio a is 219.

Molecular target: Recombinant DPP-IV enzyme (Homo sapiens, UniProt P27487)
Assay: DPP-IV enzyme resistance (GCGR bioactivity after DPP-IV treatment)
Format: in vitro ADME
Conditions: not given
Method: The purified fusion protein was dissolved in 10 mM of HEPES buffer (containing 0.05 mg/ml BSA) to a final concentration of 5 μM. Recombinant DPP-IV enzyme (final concentration of 10 nM) was added and incubated at 37° C. for 24 hours before detection of GCGR bioactivity. Activity retention rate=(activity after DPP-IV enzyme treatment/activity before DPP-IV enzyme treatment)×100%.

Chain of Recombinant DPP-IV enzyme (P27487 whole entry, species assumed): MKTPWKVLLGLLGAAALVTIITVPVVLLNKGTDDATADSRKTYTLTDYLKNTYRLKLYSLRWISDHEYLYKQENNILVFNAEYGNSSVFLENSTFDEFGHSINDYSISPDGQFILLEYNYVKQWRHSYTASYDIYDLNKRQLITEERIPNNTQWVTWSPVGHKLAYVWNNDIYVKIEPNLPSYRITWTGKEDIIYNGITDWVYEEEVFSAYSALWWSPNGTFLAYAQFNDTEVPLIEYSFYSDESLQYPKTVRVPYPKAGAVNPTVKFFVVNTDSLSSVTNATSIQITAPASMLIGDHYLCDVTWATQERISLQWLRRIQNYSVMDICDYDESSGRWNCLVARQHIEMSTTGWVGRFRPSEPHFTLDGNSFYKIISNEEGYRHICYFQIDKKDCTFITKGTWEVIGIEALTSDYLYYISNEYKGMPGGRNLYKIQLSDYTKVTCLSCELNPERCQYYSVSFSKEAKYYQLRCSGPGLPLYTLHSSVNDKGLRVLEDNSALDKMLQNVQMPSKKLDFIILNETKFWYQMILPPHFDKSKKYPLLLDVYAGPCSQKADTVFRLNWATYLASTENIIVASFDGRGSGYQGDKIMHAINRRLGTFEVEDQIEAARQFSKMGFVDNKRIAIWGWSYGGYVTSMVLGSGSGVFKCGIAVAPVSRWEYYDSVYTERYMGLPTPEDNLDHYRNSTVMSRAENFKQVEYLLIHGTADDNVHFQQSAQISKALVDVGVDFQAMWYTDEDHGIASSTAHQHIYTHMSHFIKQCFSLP

Question: Which “Resistance to DPP-IV (in words)” value does the source give for B6 here?
Answer: The value was “neither A001L1F6 (SEQ ID NO.51) nor A012L1F6 (SEQ ID NO.52) showed obvious signs of resistance to DPP-IV”.
